94 sequences from the supplement of paper PMC3334620 can be followed below.

In all, about 33,000 sequences were measured (“E-score (-0.5 to 0.5)”: median about -0.054, highest 2% from about 0.35 on). This is one part of the list.

In this test the target is T1, Stb5 (UniProt P38699).
T1 sequence: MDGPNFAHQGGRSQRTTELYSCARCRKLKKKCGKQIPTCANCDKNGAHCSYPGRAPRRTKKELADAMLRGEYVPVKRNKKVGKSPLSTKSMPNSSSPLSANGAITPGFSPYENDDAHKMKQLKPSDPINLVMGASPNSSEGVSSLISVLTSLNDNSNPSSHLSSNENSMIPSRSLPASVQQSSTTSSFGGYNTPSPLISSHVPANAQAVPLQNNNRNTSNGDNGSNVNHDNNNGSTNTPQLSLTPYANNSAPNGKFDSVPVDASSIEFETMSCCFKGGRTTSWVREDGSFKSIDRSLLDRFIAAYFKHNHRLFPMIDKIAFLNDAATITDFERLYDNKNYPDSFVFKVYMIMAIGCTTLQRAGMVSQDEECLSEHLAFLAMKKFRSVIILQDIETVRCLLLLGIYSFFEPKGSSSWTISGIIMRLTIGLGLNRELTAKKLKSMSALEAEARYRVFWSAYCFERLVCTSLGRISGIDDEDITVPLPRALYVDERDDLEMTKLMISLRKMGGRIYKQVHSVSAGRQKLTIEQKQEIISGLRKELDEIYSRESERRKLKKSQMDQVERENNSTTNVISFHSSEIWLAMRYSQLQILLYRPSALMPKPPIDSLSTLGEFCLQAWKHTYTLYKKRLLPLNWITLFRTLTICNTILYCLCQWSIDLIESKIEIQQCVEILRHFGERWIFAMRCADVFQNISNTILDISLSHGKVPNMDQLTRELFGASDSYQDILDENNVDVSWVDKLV
The experiment in a line: PBM E-score (8-mer binding enrichment) (E-score (-0.5 to 0.5)); higher = stronger / more preferred TF binding; most listed sequences are background and not binding sites. The settings on record: protein concentration: 200 nM; construct: GST-full length. Put shortly: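 PURExpress in vitro transcription/translation supplied GST-tagged yeast transcription factors, either full-length or DNA-binding domain. Applied at about 100-200 nM to universal all-10-mer Agilent arrays double-stranded by primer extension, the bound protein was detected with fluorescent anti-GST. E-scores, modified Wilcoxon-Mann-Whitney statistics, were given by the Universal PBM Analysis Suite to ungapped eight-base words pooled with their reverse complements after masliner normalisation.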
CGAGCGCG: the “PBM E-score” value amounted to 0.0684. In the case of CCTAGTTC it was -0.174. The figure for CAATGCGG is 0.211. The figure for AAGTATAG is -0.0456. Consider TCTGGGAA, for which the “PBM E-score” value was -0.163. For the sequence AGCTACCT, the “PBM E-score” value was -0.22. In the case of TATTTTCA, the “PBM E-score” value is 0.061. The figure for ACTCGTCG is -0.0463. The figure for AATCGACA is -0.233; for ATTGCGAG it is 0.0852; for CACACCAA it is -0.119. The figure for GCCACCAA is -0.0163; for ATGTCATA it is -0.0939; for CTGCTCCA it is -0.294. As for TCGTCGAA, the “PBM E-score” value was -0.364. The figure for AGCTTTTG is -0.139. In the case of GTTCTAGA it was 0.067; in that of CTTCGGCC, 0.0364. In the case of ATAGACAT it was -0.197; in that of GCATGACA, -0.191.

Turning to GGAGACCC, the “PBM E-score” value is -0.0507. The figure for GATTGCCA is -0.045; for CTGCGTTA it is -0.0105; for AACCAAAT it is -0.0785. Consider ATCCACAG, for which the “PBM E-score” value was -0.0451.

With ATTATGAG, the “PBM E-score” value is -0.0683.

As to AAAGTTGT, the “PBM E-score” value is -0.027. The figure for AACGAGGC is -0.168; for AGTAGGGG it is -0.0527; for AGTCTTCA it is -0.227. The figure for GAGCAACC is -0.113. The figure for GGCTGTGA is -0.14; for CGAACGGC it is 0.211; for ATTGAATA it is -0.0651.

With ATTAGACG, the “PBM E-score” value stood at 0.0365. The figure for CCAACGGG is 0.266; for CGGTATCA it is 0.364; for AGAACATG it is -0.149. For the sequence GACGTCCC, the “PBM E-score” value was -0.0902.

Turning to AGGTCGGA, the “PBM E-score” value worked out at 0.326. The figure for CATGTATC is -0.0223; for GCCCTTCA it is -0.0256; for TGCTTAAA it is -0.155. TAAACCAA: the “PBM E-score” value is -0.106. In the case of ATTTACTC it was 0.0443. For the sequence AGCGTAAT, the “PBM E-score” value was -0.21.

On to CGGCTGCC, for which the “PBM E-score” value is -0.0572. As for GATTTAGC, the “PBM E-score” value amounted to 0.126.

Consider TCCAGTCA, for which the “PBM E-score” value was -0.134. The figure for AGGATGTG is -0.076; for ACGGGCCG it is 0.194. For AGGGGCGC, the “PBM E-score” value is -0.0545. In the case of AAACTTTC it was -0.0994. AAGGAGCC: the “PBM E-score” value is -0.137. In the case of ACAGGCGT it was -0.167.

For ACTTATAT, the “PBM E-score” value turned out to be 0.0338.

Turning to ATCTTTAA, the “PBM E-score” value stood at 0.118. In the case of CTTTGATA it was -0.114. In the case of AGGAGGAG it was -0.286. In the case of CGGTGTTC it was 0.399; in that of AAAGCCCC, 0.246; in that of CAAAAGAA, 0.0049. On to CTCTGTGC, for which the “PBM E-score” value was -0.255. In the case of CCATGCTC it was -0.228; in that of CTTGTCTC, -0.22. CAAGATTA: the “PBM E-score” value was -0.103. In the case of CAAAGCAG it was -0.0934. The figure for AAGTCGGC is 0.295; for ACCAGTCG it is 0.1. The figure for AATTTACG is 0.222; for ATCGTGTC it is 0.129. Take CAGAGAAA: the “PBM E-score” value is -0.239. In the case of AGGCGAAT it was -0.141; in that of GGTACGAA, 0.0872. The figure for GCTCACAC is -0.119; for ATGCTGGG it is -0.0836. In the case of GAGATGCA it was -0.115.

With CGCTTGAA, the “PBM E-score” value is 0.126.

As for CAATCCCA, the “PBM E-score” value is -0.223. With ATACATGG, the “PBM E-score” value was -0.155. The figure for ATCAGAGG is 0.0307; for ATTAATGA it is 0.0675; for ACGTGAGG it is -0.0575. In the case of AAACAATC it was -0.194; in that of CAGCGGAC, 0.332; in that of AAGACAAA, -0.115. In the case of CACTAAAG it was -0.0561. As for CTTTGATC, the “PBM E-score” value was -0.079.

Regarding TAAAGGTA, the “PBM E-score” value was found to be 0.0345.

On to ATTACAAC, for which the “PBM E-score” value came out at 0.046.

Consider ATACCTCA, for which the “PBM E-score” value is -0.0977. With CTGGATTC, the “PBM E-score” value was -0.208. Turning to CAGCCCTG, the “PBM E-score” value is -0.078.

On to ACTTCCTC, for which the “PBM E-score” value was -0.108.
